Reference: paper PMC12820563, “FoxP3 forms a head-to-head dimer in vivo and stabilizes its multimerization on adjacent microsatellites”
This is one part of the list.

These sequences were tested against T1, MBP-FoxP1dN (Mus musculus, UniProt P58462 326-579) (assay: PD-seq (MBP pull-down with sequencing); 20 mM Tris-HCl pH 7.5, 100 mM NaCl, 1.5 mM MgCl2, 0.4 uM protein, 0.1 uM dsDNA library, 30 min, room temperature, amylose pull-down; high values mean tight binding). Details: protein: recombinant; tags: His6-MBP; chain copies: 2; dsDNA, one strand shown.
T1 sequence: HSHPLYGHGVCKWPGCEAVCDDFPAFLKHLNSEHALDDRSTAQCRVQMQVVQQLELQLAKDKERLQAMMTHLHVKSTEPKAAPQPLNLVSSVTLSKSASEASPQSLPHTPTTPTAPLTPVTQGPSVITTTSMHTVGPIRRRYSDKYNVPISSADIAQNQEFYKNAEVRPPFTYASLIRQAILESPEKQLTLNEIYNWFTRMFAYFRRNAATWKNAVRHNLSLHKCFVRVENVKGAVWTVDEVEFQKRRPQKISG
Method in brief: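 Binding is given as reads-per-million enrichment, pull-down over input, with replicates pooled. The bait was an N-terminus-lacking mouse FoxP3 or FoxP1 fragment with a His6-MBP tag, expressed in E. coli and used at 0.4 µM with 0.1 µM Klenow-filled degenerate double-stranded DNA library for 30 min at room temperature in Tris pH 7.5 buffer with NaCl and MgCl2. Amylose resin pull-down with three washes was followed by proteinase K release, PCR barcoding and Illumina sequencing.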
In the case of “GATGATTGTTCTCCCAGCTGATGAATTTTATAAGTCGAGTAAACAAATTTTCCTAATCTTTCTGTTCAAGCGCCATCTAC”, the binding signal is reported as 0.919 RPM ratio (pull-down/input).
“GATGATTGTTCTCCCAGCTGATGAATTGACCAATTCGAGTAAACAAATTTTCCTAATCTTTCTGTTCAAGCGCCATCTAC” was tested, and the binding signal was 1.14 RPM ratio (pull-down/input).
“GATGATTGTTCTCCCAGCTGATGAATTAAGTTCTTCGAGTAAACAAATTTTCCTAATCTTTCTGTTCAAGCGCCATCTAC” was tested, and the binding signal was 0.916 RPM ratio (pull-down/input).
For “GATGATTGTTCTCCCAGCTGATGAATTTGCCCAATCGAGTAAACAAATTTTCCTAATCTTTCTGTTCAAGCGCCATCTAC”, the binding signal was 1.06 RPM ratio (pull-down/input).
For “GATGATTGTTCTCCCAGCTGATGAATTGCAACGGTCGAGTAAACAAATTTTCCTAATCTTTCTGTTCAAGCGCCATCTAC”, the binding signal was 1.11 RPM ratio (pull-down/input).
In the case of “GATGATTGTTCTCCCAGCTGATGAATTAGACAACTCGAGTAAACAAATTTTCCTAATCTTTCTGTTCAAGCGCCATCTAC”, the binding signal is reported as 1.16 RPM ratio (pull-down/input).
“GATGATTGTTCTCCCAGCTGATGAATTATGTAAATCGAGTAAACAAATTTTCCTAATCTTTCTGTTCAAGCGCCATCTAC” was tested, and the binding signal was 1.47 RPM ratio (pull-down/input).
With “GATGATTGTTCTCCCAGCTGATGAATTGATCGGCTCGAGTAAACAAATTTTCCTAATCTTTCTGTTCAAGCGCCATCTAC” the binding signal was 0.783 RPM ratio (pull-down/input).
In the case of “GATGATTGTTCTCCCAGCTGATGAATTCCAAACCTCGAGTAAACAAATTTTCCTAATCTTTCTGTTCAAGCGCCATCTAC”, the binding signal is reported as 0.78 RPM ratio (pull-down/input).
In the case of “GATGATTGTTCTCCCAGCTGATGAATTAGGCAAATCGAGTAAACAAATTTTCCTAATCTTTCTGTTCAAGCGCCATCTAC”, the binding signal is reported as 1.1 RPM ratio (pull-down/input).
“GATGATTGTTCTCCCAGCTGATGAATTTCAATAGTCGAGTAAACAAATTTTCCTAATCTTTCTGTTCAAGCGCCATCTAC” was tested, and the binding signal was 0.89 RPM ratio (pull-down/input).
In the case of “GATGATTGTTCTCCCAGCTGATGAATTCGTGTGCTCGAGTAAACAAATTTTCCTAATCTTTCTGTTCAAGCGCCATCTAC”, the binding signal is reported as 0.9 RPM ratio (pull-down/input).
“GATGATTGTTCTCCCAGCTGATGAATTTCGCCTATCGAGTAAACAAATTTTCCTAATCTTTCTGTTCAAGCGCCATCTAC” was tested, and the binding signal was 0.843 RPM ratio (pull-down/input).
With “GATGATTGTTCTCCCAGCTGATGAATTGAACAGTTCGAGTAAACAAATTTTCCTAATCTTTCTGTTCAAGCGCCATCTAC” the binding signal was 0.869 RPM ratio (pull-down/input).
In the case of “GATGATTGTTCTCCCAGCTGATGAATTAACGTAGTCGAGTAAACAAATTTTCCTAATCTTTCTGTTCAAGCGCCATCTAC”, the binding signal is reported as 0.937 RPM ratio (pull-down/input).
“GATGATTGTTCTCCCAGCTGATGAATTAAGACGTTCGAGTAAACAAATTTTCCTAATCTTTCTGTTCAAGCGCCATCTAC” was tested, and the binding signal was 0.984 RPM ratio (pull-down/input).
“GATGATTGTTCTCCCAGCTGATGAATTTGATGGCTCGAGTAAACAAATTTTCCTAATCTTTCTGTTCAAGCGCCATCTAC” was tested, and the binding signal was 0.787 RPM ratio (pull-down/input).
With “GATGATTGTTCTCCCAGCTGATGAATTACAGACCTCGAGTAAACAAATTTTCCTAATCTTTCTGTTCAAGCGCCATCTAC” the binding signal was 0.949 RPM ratio (pull-down/input).
